We go through 52 compounds from the supplement of paper PMC10986608.

The other results are listed elsewhere or left out. Single values are uncertain, as repeats are few or missing.

This assay has as its system Candida albicans DPL-15. Put plainly: growth (OD600) after compound treatment (apparently relative to screen median) (relative growth (fraction; screen median 1.02)); DPL-15 is a caspofungin-resistant clinical isolate; higher = more fungal growth (less antifungal activity). To be noted: 25 µM; RPMI 1640; 48 h; 30 °C.
On to `C=CC[C@]12C[C@@]3(O[C@H](C4CCNCC4)N=C3C[C@H](c3ccc(OC)cc3)[C@H]1C)N(Cc1cccs1)C2=O`, for which the growth amounted to 0.884.

For `COc1ccc(N2C(=O)c3[nH]nc(CC(C)C)c3C2c2ccccn2)cc1` (configuration not stated), the growth came to 0.918.

In the case of `COCCN1C(=O)N[C@@H](c2cccc(C(F)(F)F)c2)C(C(C)=O)=C1C`, the growth amounted to 1.03.

For the compound `COc1ccc(C[C@H](CO)[C@H](CO)Cc2ccc3c(c2)OCO3)cc1OC`, the growth was 1.14.

As to `Cc1ccc(C2NC(=O)C3=C2C(C(C)C)=NCCN3C)cc1` (configuration not stated), the growth came to 0.977.

Consider `COc1ccc(N2C(=O)C3=C(C(C)=NCCN3C)C2c2ccccc2)cc1` (configuration not stated), for which the growth came out at 1.06.

With `CC(=O)C1=C2C=CCCN2C(=O)NC1c1ccc(-c2cccc(C)c2)cc1` (configuration not stated), the growth worked out at 0.913.

With `CC(C)Cc1n[nH]c2c1C(c1ccc(F)cc1)N(c1ccc(N3CCCC3=O)cc1)C2=O` (configuration not stated), the growth was 1.02.

As to `COC(=O)c1cc(=O)c2c(O)cc(C#Cc3cccc(OC)c3)cc2o1`, the growth stood at 1.23.

`CCC[C@@H](O)COc1cc2c(cc1C1(c3cc4c(cc3OC[C@H](O)CCC)OCO4)C(=O)Nc3cc(Br)ccc31)OCO2`: the growth came to 1.07.

Turning to `COC(=O)c1cc(CCCC(=O)NCc2ccc(OC)cc2)c(C(=O)OC)nn1`, the growth was 1.07.

On to `CC(=O)Oc1cc(O)c2c(C)cc(O)c3c2c1COC3=O`, for which the growth is 1.02.

`COc1ccc(N2C(=O)C3=C(C(C(C)C)=NCC(C)(C)N3)C2c2cccc(C(F)(F)F)c2)cc1` (configuration not stated): the growth amounted to 1.05.

As for `CC(C)C(=O)C1CC2(CCCCC2)OC2=C1C(=O)C(C)(C)C(=O)C2(C)C` (configuration not stated), the growth is 0.996.

Take `COC(=O)C/C=C/[C@H](C)[C@H](NC(=O)C(F)(F)F)C1CC1`: the growth is 0.974.

For the compound `CC(C)=CCc1cc(OCc2nn[nH]n2)cc2oc3cccc(O)c3c(=O)c12`, the growth came out at 1.01.

Turning to `COC(=O)C1=C(C)N(CCc2cccs2)C(NCCc2cccs2)=NC1c1ccccc1` (configuration not stated), the growth amounted to 1.15.

`C[C@H]1COc2c(N3CCN(C)CC3)c(F)cc3c(=O)c(C(=O)NCc4ccco4)cn1c23`: the growth worked out at 0.935.

Regarding `Cc1ccccc1S(=O)(=O)N1CCCc2nc(C)c(C)cc21`, the growth was found to be 0.982.

On to `CO[C@@H]1[C@H](O)CC[C@]2(O)CN(C3CCN(Cc4ccccc4)CC3)[C@@H](CC=C(C)C)[C@](C)(O)[C@@H]12`, for which the growth was determined as 1.31.

On to `COC1=C2C(=O)c3c(O)cc(C)cc3O[C@@]2(C)[C@H](O)CC1`, for which the growth came out at 1.13.

For the compound `CC(C)C(=O)Cc1cc(O)cc(O)c1C(=O)N(C)Cc1ccccc1`, the growth is 1.07.

As to `COC(=O)c1nnc(C(C)=O)c2c3ccccc3n(Cc3ccccc3)c12`, the growth was 1.08.

`CC(C)Cc1n[nH]c2c1C(c1ccc(F)cc1)N(c1ccc(S(N)(=O)=O)cc1)C2=O` (configuration not stated): the growth was found to be 1.12.

With `C[C@@H]1C=CCCO[C@]12C(=O)N(CC1CC1)c1cccc(Br)c12`, the growth amounted to 1.02.

Take `COc1ccc([C@]23Oc4cc(OC)cc(OC)c4[C@@]2(O)c2nc(-c4cccc(OC)c4)[nH]c(=O)c2[C@@H]3c2ccccc2)cc1`: the growth turned out to be 0.883.

As to `CC(=O)O[C@@H]1C=C[C@@H](C#Cc2ccc(C(C)(C)C)cc2)O[C@@H]1COC(=O)Nc1ccccc1`, the growth is 1.03.

For the compound `Cc1ccc(C2NC(=O)c3nn(C)c(C(C)C)c32)cc1` (configuration not stated), the growth was determined as 1.12.

Regarding `COc1cccc(Oc2cc(Cl)ccc2C(=O)O)c1OCc1ccccc1`, the growth is 0.977.

For the compound `OC[C@H]1O[C@H](c2ccccc2)C=C[C@@H]1OCc1cccc(Br)c1`, the growth came out at 1.09.

Consider `COC(=O)N1C(c2ccccc2)=Cc2ccccc2C1CC(C)=O` (configuration not stated), for which the growth was 1.04.

For the compound `CCCc1ccc(C(=O)[C@H]2[C@@H](O)[C@@]3(O)c4c(OC)cc(OC)cc4O[C@@]3(c3ccc(OC)cc3)[C@@H]2c2ccccc2)o1`, the growth was determined as 1.02.

Turning to `COc1ccccc1Cn1nc(C)c2c1C(=O)NC2c1ccc2c(c1)OCO2` (configuration not stated), the growth was 0.852.

Regarding `C#Cc1cc(OC)cc(OC)c1-c1cc(OC)ccc1OS(=O)(=O)C(F)(F)F`, the growth turned out to be 1.1.

`COc1cccc(C2NC(=S)N(Cc3ccc(F)cc3)C(C)=C2C(C)=O)c1` (configuration not stated): the growth turned out to be 1.05.

On to `CC1(C)CNC(=O)[C@@H]2C[C@@H](O)CN2C(=O)c2cccc(c2)-c2[nH]ncc2C1`, for which the growth is 1.26.

Consider `COc1ccc(N2C(=O)c3[nH]nc(CC(C)C)c3C2c2ccc(F)c(C)n2)cc1` (configuration not stated), for which the growth was 1.23.

As to `COC(=O)Cc1nnn2c1[C@H](C)[C@@H](OC)c1ccccc1-2`, the growth was 0.985.

With `CCCCCNS(N)(=O)=O`, the growth was 1.22.

`COC(=O)[C@@]12Oc3cccc(O)c3C(=O)C1=C(OC)CC[C@H]2O`: the growth was determined as 1.05.

With `COc1cccc(C(CC2=CCCCC2)NC(=O)C(F)(F)F)c1` (configuration not stated), the growth was 0.994.

As to `COc1ccc(N2C(=O)C3=C(C(c4ccccc4)=NCC(C)(C)N3)C2c2cccc(C(F)(F)F)c2)cc1` (configuration not stated), the growth turned out to be 1.03.

For the compound `Cc1ccc(C2c3c(CC(C)C)nn(C)c3C(=O)N2Cc2ccccc2)cc1` (configuration not stated), the growth was determined as 0.966.

As for `CCCC#Cc1c(OC)ccc(OC)c1C(=O)NC`, the growth is 1.24.

Consider `COc1ccc(N2C(=O)C3=C(C(CC(C)C)=NCCN3C)C2c2ccc(Br)cc2)cc1` (configuration not stated), for which the growth stood at 0.994.

On to `CCN(CC)CCCN1C[C@@]2(O)CC[C@@H](O)[C@@H](OC)[C@@H]2[C@@](C)(O)[C@@H]1CC=C(C)C`, for which the growth was determined as 1.12.

With `CC1=C[C@H]2c3c(c(O)c(O)c4oc5ccccc5c(=O)c34)[C@H](c3cc(O)c(O)c4oc5ccccc5c(=O)c34)[C@H]2C(C)(C)C1`, the growth is active: 0.0836.

On to `COc1ccc(C(=O)Nc2ccc(CCN3CCc4cc(OC)c(OC)cc4C3)cc2)c([N+](=O)[O-])c1`, for which the growth came out at 1.08.

On to `Cc1ccc(S(=O)(=O)N2CCCc3nc(-c4ccccc4)ccc32)cc1`, for which the growth was found to be 0.967.

Regarding `COc1cc(OC)c2c(=O)c(O)c(-c3ccc(Br)cc3)n(C)c2c1`, the growth was active: 0.0563.

Take `COCc1n[nH]c2c1C(c1ccc3c(c1)OCO3)N(Cc1ccccc1)C2=O` (configuration not stated): the growth came to 0.901.

Regarding `COc1ccc(-c2c(O)c(=O)c3c(OC)cccc3n2C)cc1`, the growth was 0.414.
